No constants are given. Whether binding was seen depends on the method and setting. Some binding calls cover weakened binding; strength is not graded here.
T1: Nse5-Nse6 (Gal4BD-Nse5 with non-hybrid Nse6) (S. pombe) (UniProt O94668+O13688)
T1 sequence 1: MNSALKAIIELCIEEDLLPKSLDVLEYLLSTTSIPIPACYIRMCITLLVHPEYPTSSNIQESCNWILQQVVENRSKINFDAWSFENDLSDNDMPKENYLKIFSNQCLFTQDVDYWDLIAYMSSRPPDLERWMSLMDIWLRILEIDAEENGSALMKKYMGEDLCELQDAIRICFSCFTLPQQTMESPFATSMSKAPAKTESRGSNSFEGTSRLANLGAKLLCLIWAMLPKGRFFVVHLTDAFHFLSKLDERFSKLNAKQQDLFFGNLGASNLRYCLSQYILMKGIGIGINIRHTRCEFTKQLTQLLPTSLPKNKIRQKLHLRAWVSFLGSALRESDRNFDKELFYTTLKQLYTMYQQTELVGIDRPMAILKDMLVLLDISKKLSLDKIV
T1 sequence 2: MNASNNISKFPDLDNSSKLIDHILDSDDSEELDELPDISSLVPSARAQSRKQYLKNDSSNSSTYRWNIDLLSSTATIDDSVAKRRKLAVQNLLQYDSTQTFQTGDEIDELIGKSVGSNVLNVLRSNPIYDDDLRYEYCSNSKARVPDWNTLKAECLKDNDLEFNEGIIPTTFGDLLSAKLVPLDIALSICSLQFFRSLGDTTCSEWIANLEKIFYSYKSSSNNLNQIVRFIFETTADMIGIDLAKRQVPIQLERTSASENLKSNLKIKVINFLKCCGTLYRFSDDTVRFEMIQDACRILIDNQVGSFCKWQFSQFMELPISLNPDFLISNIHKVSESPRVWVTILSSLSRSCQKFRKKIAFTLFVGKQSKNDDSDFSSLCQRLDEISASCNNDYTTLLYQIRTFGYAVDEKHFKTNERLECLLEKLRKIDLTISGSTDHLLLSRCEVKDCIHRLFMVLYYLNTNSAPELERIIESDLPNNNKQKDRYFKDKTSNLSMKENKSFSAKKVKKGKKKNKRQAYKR

T2: Nse4 (aa1-300), non-hybrid (S. pombe) (UniProt Q6BDR8)
T2 sequence: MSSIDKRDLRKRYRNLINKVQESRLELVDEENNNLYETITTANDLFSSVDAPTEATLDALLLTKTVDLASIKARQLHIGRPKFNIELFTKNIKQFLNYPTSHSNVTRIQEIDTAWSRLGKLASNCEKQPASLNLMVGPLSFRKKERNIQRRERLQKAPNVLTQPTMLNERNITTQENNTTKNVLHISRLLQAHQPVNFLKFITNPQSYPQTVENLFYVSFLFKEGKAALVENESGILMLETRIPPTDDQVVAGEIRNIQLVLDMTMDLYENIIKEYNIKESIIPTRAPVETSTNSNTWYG

T3: Nse4 L62C, T65R double mutant, non-hybrid (S. pombe) (UniProt Q6BDR8)
T3 sequence: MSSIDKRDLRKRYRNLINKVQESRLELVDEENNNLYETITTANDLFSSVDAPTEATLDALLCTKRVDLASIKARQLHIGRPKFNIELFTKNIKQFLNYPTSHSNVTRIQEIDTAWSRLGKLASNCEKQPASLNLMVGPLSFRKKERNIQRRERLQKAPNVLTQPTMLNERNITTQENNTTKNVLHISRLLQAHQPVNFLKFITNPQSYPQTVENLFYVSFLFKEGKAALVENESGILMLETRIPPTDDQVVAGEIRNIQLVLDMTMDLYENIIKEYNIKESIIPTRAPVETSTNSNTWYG

T4: Gal4BD-Nse4 (S. pombe) (UniProt Q6BDR8)
T4 sequence: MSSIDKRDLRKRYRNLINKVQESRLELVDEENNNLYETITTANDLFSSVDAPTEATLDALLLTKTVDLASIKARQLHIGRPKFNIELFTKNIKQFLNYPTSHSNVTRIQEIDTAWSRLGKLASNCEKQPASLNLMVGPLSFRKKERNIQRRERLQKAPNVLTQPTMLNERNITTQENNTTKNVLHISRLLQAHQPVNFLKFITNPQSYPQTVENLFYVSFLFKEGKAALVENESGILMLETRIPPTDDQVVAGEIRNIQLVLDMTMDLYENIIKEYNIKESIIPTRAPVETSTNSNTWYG

T5: Gal4BD-SMC5 (S. pombe) (UniProt O13710)
T5 sequence: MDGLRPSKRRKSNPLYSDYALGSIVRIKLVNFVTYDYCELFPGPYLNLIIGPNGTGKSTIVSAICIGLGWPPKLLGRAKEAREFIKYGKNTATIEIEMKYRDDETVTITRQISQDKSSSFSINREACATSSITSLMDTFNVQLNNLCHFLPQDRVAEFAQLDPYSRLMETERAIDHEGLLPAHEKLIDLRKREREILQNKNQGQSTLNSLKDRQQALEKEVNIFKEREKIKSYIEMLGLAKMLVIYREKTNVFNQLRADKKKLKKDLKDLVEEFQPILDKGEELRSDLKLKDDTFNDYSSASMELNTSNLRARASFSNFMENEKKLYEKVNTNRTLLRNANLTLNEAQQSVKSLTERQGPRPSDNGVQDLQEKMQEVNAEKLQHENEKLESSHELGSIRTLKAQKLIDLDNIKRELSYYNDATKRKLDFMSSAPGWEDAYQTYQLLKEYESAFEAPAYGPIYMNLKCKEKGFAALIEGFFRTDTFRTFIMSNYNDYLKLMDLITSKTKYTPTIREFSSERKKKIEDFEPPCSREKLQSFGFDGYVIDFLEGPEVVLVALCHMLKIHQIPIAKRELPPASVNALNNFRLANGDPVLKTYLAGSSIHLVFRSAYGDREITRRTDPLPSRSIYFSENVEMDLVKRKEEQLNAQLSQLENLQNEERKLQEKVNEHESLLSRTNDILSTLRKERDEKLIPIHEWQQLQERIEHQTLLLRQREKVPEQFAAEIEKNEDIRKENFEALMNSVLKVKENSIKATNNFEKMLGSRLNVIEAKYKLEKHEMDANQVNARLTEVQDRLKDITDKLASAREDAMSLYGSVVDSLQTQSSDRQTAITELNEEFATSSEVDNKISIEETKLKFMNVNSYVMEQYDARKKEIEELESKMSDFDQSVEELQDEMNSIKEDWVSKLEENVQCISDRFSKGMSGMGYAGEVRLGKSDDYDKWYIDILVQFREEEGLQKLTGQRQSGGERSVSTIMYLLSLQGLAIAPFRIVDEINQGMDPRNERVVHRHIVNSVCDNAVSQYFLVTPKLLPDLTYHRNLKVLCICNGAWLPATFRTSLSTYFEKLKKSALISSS

T6: Gal4BD-SMC5 E995Q (S. pombe) (UniProt O13710)
T6 sequence: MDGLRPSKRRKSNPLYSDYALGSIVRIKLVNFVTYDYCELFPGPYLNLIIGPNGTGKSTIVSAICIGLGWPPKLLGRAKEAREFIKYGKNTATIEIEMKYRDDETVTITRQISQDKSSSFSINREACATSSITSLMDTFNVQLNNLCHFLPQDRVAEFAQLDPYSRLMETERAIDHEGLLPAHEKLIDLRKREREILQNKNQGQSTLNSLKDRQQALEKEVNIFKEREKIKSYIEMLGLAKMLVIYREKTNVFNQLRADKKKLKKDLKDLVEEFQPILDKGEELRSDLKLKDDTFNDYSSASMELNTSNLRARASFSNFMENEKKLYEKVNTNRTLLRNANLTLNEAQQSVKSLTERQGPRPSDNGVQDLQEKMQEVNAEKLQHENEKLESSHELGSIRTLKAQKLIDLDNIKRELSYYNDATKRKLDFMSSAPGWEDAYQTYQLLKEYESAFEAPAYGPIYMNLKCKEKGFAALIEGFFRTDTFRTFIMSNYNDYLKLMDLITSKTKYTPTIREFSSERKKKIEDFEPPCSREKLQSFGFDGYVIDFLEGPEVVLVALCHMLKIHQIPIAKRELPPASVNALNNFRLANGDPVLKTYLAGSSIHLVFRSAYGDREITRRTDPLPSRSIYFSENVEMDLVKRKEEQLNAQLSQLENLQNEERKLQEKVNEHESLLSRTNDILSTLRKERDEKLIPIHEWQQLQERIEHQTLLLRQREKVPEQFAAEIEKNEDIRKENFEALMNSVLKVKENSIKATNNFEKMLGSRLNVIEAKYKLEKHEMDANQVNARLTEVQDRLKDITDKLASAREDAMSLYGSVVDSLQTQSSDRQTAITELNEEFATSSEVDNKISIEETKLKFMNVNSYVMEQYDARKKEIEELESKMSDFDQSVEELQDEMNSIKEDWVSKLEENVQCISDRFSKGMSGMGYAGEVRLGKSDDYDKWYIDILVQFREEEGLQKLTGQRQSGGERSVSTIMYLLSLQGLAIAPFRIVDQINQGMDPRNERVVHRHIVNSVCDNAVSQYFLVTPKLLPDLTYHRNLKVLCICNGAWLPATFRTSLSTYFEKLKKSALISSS


What was measured:
[1] = target: T1, Nse5-Nse6 (Gal4BD-Nse5 with non-hybrid Nse6) (S. pombe); experiment: two-hybrid; 3Y2H: Gal4AD-SMC6 + Gal4BD-Nse5 + non-hybrid Nse6 (p416ADH1-Nse6); -L,T,U,H plates with 3 mM 3-aminotriazole
[2] = target: T2, Nse4 (aa1-300), non-hybrid (S. pombe); experiment: two-hybrid; 5Y2H: Gal4BD-SMC5 + Gal4AD-SMC6 + non-hybrid Nse4, Nse3 and Nse1 (p416ADH1-Nse4+Nse3+Nse1); plates with increasing 3-aminotriazole
[3] = target: T3, Nse4 L62C, T65R double mutant, non-hybrid (S. pombe); experiment: as above
[4] = target: T2, Nse4 (aa1-300), non-hybrid (S. pombe); experiment: two-hybrid; 3Y2H: Gal4BD-SMC5 + Gal4AD-SMC6 + non-hybrid Nse4 (p416ADH1-Nse4); -L,T,U,H plates with 0.5 mM or increasing 3-aminotriazole, 28 °C
[5] = target: T3, Nse4 L62C, T65R double mutant, non-hybrid (S. pombe); experiment: as above
Gal4BD-Nse4 (S. pombe) = target: T4, Gal4BD-Nse4 (S. pombe); experiment: two-hybrid; 4Y2H: Gal4BD-Nse4 + Gal4AD-SMC6 + non-hybrid Nse1 and Nse3 (p416ADH1-Nse1+Nse3); -L,T,U,H plates with 0.3 mM 3-aminotriazole, 28 °C
Gal4BD-SMC5 (S. pombe) [6] = target: T5, Gal4BD-SMC5 (S. pombe); experiment: two-hybrid; 5Y2H: Gal4BD-SMC5 + Gal4AD-SMC6 + non-hybrid Nse4, Nse3 and Nse1 (p416ADH1-Nse4+Nse3+Nse1); plates with increasing 3-aminotriazole
Gal4BD-SMC5 (S. pombe) [7] = target: T5, Gal4BD-SMC5 (S. pombe); experiment: two-hybrid; 3Y2H: Gal4BD-SMC5 + Gal4AD-SMC6 + non-hybrid Nse4 (p416ADH1-Nse4); -L,T,U,H plates with 0.5 mM or increasing 3-aminotriazole, 28 °C
[8] = target: T6, Gal4BD-SMC5 E995Q (S. pombe); experiment: as above

Binder	binding [1]	binding [2]	binding [3]	binding [4]	binding [5]	binding (Gal4BD-Nse4 (S. pombe))	binding (Gal4BD-SMC5 (S. pombe) [6])	binding (Gal4BD-SMC5 (S. pombe) [7])	binding [8]
Gal4AD-SMC6 (protein, UniProt P53692 1-1140) MTTELTNVSLEEAITEKTSENRRKRDSDVLQTEEVDLSNVKRIRASRNQDNRPERQSRLQRSSSLIEQVRGNEDGENDVLNQTRETNSNFDNRVGVIECIHLVNFMCHDSLKINFGPRINFVIGHNGSGKSAILTGLTICLGAKASNTNRAPNMKSLVKQGKNYARISVTISNRGFEAYQPEIYGKSITIERTIRREGSSEYRLRSFNGTVISTKRDELDNICDHMGLQIDNPMNILTQDTARQFLGNSSPKEKYQLFMKGIQLKQLEENYSLIEQSLINTKNVLGNKKTGVSYLAKKEEEYKLLWEQSRETENLHNLLEQKKGEMVWAQVVEVEKELLLAEKEFQHAEVKLSEAKENLESIVTNQSDIDGKISSKEEVIGRAKGETDTTKSKFEDIVKTFDGYRSEMNDVDIQKRDIQNSINAAKSCLDVYREQLNTERARENNLGGSQIEKRANESNNLQREIADLSEQIVELESKRNDLHSALLEMGGNLTSLLTKKDSIANKISDQSEHLKVLEDVQRDKVSAFGKNMPQLLKLITRETRFQHPPKGPMGKYMTVKEQKWHLIIERILGNVINGFIVRSHHDQLILKELMRQSNCHATVVVGKYDPFDYSSGEPDSQYPTVLKIIKFDDDEVLHTLINHLGIEKMLLIEDRREAEAYMKRGIANVTQCYALDPRNRGYGFRIVSTQRSSGISKVTPWNRPPRIGFSSSTSIEAEKKILDDLKKQYNFASNQLNEAKIEQAKFKRDEQLLVEKIEGIKKRILLKRREVNSLESQELSVLDTEKIQTLERRISETEKELESYAGQLQDAKNEEHRIRDNQRPVIEEIRIYREKIQTETQRLSSLQTELSRLRDEKRNSEVDIERHRQTVESCTNILREKEAKKVQCAQVVADYTAKANTRCERVPVQLSPAELDNEIERLQMQIAEWRNRTGVSVEQAAEDYLNAKEKHDQAKVLVARLTQLLQALEETLRRRNEMWTKFRKLITLRTKELFELYLSQRNFTGKLVIKHQEEFLEPRVYPANRNLATAHNRHEKSKVSVQGLSGGEKSFATICMLLSIWEAMSCPLRCLDEFDVFMDAVNRLVSIKMMVDSAKDSSDKQFIFITPQDMGQIGLDKDVVVFRLSDPVVSSSALPPSTAP	binds	binds	binds weakly	binds	binds weakly	binds			
Nse4 (aa1-300), non-hybrid (protein, UniProt Q6BDR8 1-300) MSSIDKRDLRKRYRNLINKVQESRLELVDEENNNLYETITTANDLFSSVDAPTEATLDALLLTKTVDLASIKARQLHIGRPKFNIELFTKNIKQFLNYPTSHSNVTRIQEIDTAWSRLGKLASNCEKQPASLNLMVGPLSFRKKERNIQRRERLQKAPNVLTQPTMLNERNITTQENNTTKNVLHISRLLQAHQPVNFLKFITNPQSYPQTVENLFYVSFLFKEGKAALVENESGILMLETRIPPTDDQVVAGEIRNIQLVLDMTMDLYENIIKEYNIKESIIPTRAPVETSTNSNTWYG							binds	binds	binds
